Experimental data: paper PMC7994375

B1: Human Melanocortin-4 Receptor (MC4R) WT, NanoBiT constructs (MC4R WT-LgBiT; MC4R WT-SmBiT) [human] / Human Gαs-C-SmBiT [human] (parent)
chain 1: MVNSTHRGMHTSLHLWNRSSYRLHSNASESLGKGYSDGGCYEQLFVSPEVFVTLGVISLLENILVIVAIAKNKNLHSPMYFFICSLAVADMLVSVSNGSETIVITLLNSTDTDAQSFTVNIDNVIDSVICSSLLASICSLLSIAVDRYFTIFYALQYHNIMTVKRVGIIISCIWAACTVSGILFIIYSDSSAVIICLITMFFTMLALMASLYVHMFLMARLHIKRIAVLPGTGAIRQGANMKGAITLTILIGVFVVCWAPFFLHLIFYISCPQNPYCVCFMSHFNLYLILIMCNSIIDPLIYALRSQELRKTFKEIICCYPLGGLCDLSSRY
chain 2: MGCLGNSKTEDQRNEEKAQREANKKIEKQLQKDKQVYRATHRLLLLGAGESGKSTIVKQMRILHVNGFNGEGGEEDPQAARSNSDGEKATKVQDIKNNLKEAIETIVAAMSNLVPPVELANPENQFRVDYILSVMNVPDFDFPPEFYEHAKALWEDEGVRACYERSNEYQLIDCAQYFLDKIDVIKQADYVPSDQDLLRCRVLTSGIFETKFQVDKVNFHMFDVGGQRDERRKWIQCFNDVTAIIFVVASSSYNMVIREDNQTNRLQEALNLFKSIWNNRWLRTISVILFLNKQDLLAEKVLAGKSKIEDYFPEFARYTTPEDATPEPGEDPRVTRAKYFIRDEFLRISTASGDGRHYCYPHFTCAVDTENIRRVFNDCRDIIQRMHLRQYELL
B2: Human Melanocortin-4 Receptor (MC4R) WT, NanoBiT constructs (MC4R WT-LgBiT; MC4R WT-SmBiT) [human] / Human N-SmBiT-β-arrestin-1 [human] (parent)
chain 1: B1 chain 1
chain 2: MGDKGTRVFKKASPNGKLTVYLGKRDFVDHIDLVDPVDGVVLVDPEYLKERRVYVTLTCAFRYGREDLDVLGLTFRKDLFVANVQSFPPAPEDKKPLTRLQERLIKKLGEHAYPFTFEIPPNLPCSVTLQPGPEDTGKACGVDYEVKAFCAENLEEKIHKRNSVRLVIRKVQYAPERPGPQPTAETTRQFLMSDKPLHLEASLDKEIYYHGEPISVNVHVTNNTNKTVKKIKISVRQYADICLFNTAQYKCPVAMEEADDTVAPSSTFCKVYTLTPFLANNREKRGLALDGKLKHEDTNLASSTLLREGANREILGIIVSYKVKVKLVVSRGGLLGDLASSDVAVELPFTLMHPKPKEEPPHREVPENETPVDTNLIELDTNDDDIVFEDFARQRLKGMKDDKEEEEDGTGSPQLNNR
B3: Human Melanocortin-4 Receptor (MC4R) WT, NanoBiT constructs (MC4R WT-LgBiT; MC4R WT-SmBiT) [human] / Human Melanocortin-4 Receptor (MC4R) WT, NanoBiT constructs (MC4R WT-LgBiT; MC4R WT-SmBiT) [human] (parent)
chain 1: B1 chain 1
chain 2: B1 chain 1

Variants of: B1
Assay: NanoBiT enzyme complementation assay
Conditions: with Human Gαs-C-SmBiT [human]; read off a plot

Row | Variant | screen value (loge(mutant/WT))
1 | chain 1 I186V | -0.4
2 | chain 1 I289L | -0.05
3 | chain 1 S19G | 0.9

Variants of: B2
Assay: NanoBiT protein:protein interaction assay
Conditions: with Human N-SmBiT-β-arrestin-1 [human]; read off a plot

Row | Variant | screen value (loge(mutant/WT))
4 | chain 1 C326R | -0.8
5 | chain 1 G34A | -0.1
6 | chain 1 G231S | -0.45
7 | chain 1 G238D | 0.3
8 | chain 1 I186V | -0.1
9 | chain 1 I251L | 0.45
10 | chain 1 I289L | 0.4
11 | chain 1 L304F | 0.25
12 | chain 1 L325F | -0.9
13 | chain 1 M200V | -0.8
14 | chain 1 N240S | 0.6
15 | chain 1 R236C | -0.7
16 | chain 1 R305S | -0.1
17 | chain 1 S19G | 0.05
18 | chain 1 S30F | 0.25
19 | chain 1 S191T | 0.5
20 | chain 1 S295P | -1.1
21 | chain 1 T11A | 0.7
22 | chain 1 T53I | 0.35
23 | chain 1 T112M | -0.25
24 | chain 1 T232S | -0.45
25 | chain 1 V103I | 1.5

Variants of: B3
Assay: NanoBiT protein:protein interaction assay
Conditions: with Human Melanocortin-4 Receptor (MC4R) WT, read off a plot

Row | Variant | screen value (loge(mutant/WT))
26 | chain 1 T232S | -0.75
27 | chain 1 G34A | -0.7
28 | chain 1 R305S | -0.65
29 | chain 1 N240S | 0.15
30 | chain 1 I186V | -0.5
31 | chain 1 L304F | 0.2
32 | chain 1 T53I | -0.6
33 | chain 1 G238D | -0.1
34 | chain 1 S19G | -0.55
35 | chain 1 T112M | -1.4
36 | chain 1 I251L | -0.4
37 | chain 1 S30F | -0.5
38 | chain 1 S295P | -0.85
39 | chain 1 I289L | -0.15
40 | chain 1 R236C | -1.3
41 | chain 1 S191T | -0.55
42 | chain 1 M200V | -1.4
43 | chain 1 L325F | -0.8
44 | chain 1 T11A | -0.3
45 | chain 1 C326R | -0.8
46 | chain 1 V103I | 0.05
47 | chain 1 G231S | 0
